Assay results reported in PubChem BioAssay AID485273 (Sanford-Burnham Center for Chemical Genomics, 2010).
The whole screen tested about 330,000 compounds, of which about 1,500 (0.45%) were called active. The inconclusive results got no clear call from the source; some entries with a clear call stand among them for comparison. No stated cut-off is given here; in the data, active means inhibition above about 45% (passing the limit was not always enough); inconclusive means no clear call, values can overlap the other calls.

What follows are compounds tested against Ubiquitin-conjugating enzyme E2 N (Homo sapiens) (UniProt P61088) (assay: UBC13 polyubiquitin chain formation inhibitors, primary screen, biochemical, TR-FRET, uHTS (AID 485273)). Conditions: at 20 µM, hits give high values.
UniProt P61088, sequence (P61088 whole entry, looked up): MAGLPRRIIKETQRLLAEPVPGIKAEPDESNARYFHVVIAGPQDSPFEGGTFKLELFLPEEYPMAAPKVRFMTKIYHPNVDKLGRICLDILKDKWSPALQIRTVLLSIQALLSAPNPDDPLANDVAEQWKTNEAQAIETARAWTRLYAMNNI
For `CC1(C)Cc2sc3c(=O)[nH]c(=S)[nH]c3c2CO1`, the inhibition was inconclusive: 78.2%.
`COc1ccc(Br)cc1-c1nc(CCl)cs1` was tested, and the inhibition was inconclusive: 78.8%.
In the case of `Cc1nc(N2CCN(c3ccccn3)CC2)c2c(C)c(C(=O)Nc3ccc(F)cc3F)sc2n1`, the inhibition is reported as inconclusive: 70.1%.
In the case of `Cc1noc(C)c1CSCC(=O)Nc1cc(S(=O)(=O)N2CCOCC2)ccc1OCC(F)(F)F`, the inhibition is reported as inactive: 2%.
`COc1cc(C(=O)CCN2CCC(c3ccccc3)C2)cc(OC)c1OC` (stereo not drawn) was tested, and the inhibition was inactive: 0.7%.
With `CC[C@@H](C)[C@@H]1CN([C@@H](CN2CCC[C@H]2CN2C(N)=NC[C@H]2C(C)C)C(C)C)C(=N)N1CCCC1CCCC1` the inhibition was active: 52.9%.
With `N#CC1=C(N)SC(N)=C(C#N)C1c1ccc(C(F)(F)F)cc1` the inhibition was inconclusive: 65%.
In the case of `Cn1c(=NC(=O)C2CCN(S(=O)(=O)c3cccs3)CC2)sc2ccccc21`, the inhibition is reported as inconclusive: 54.7%.
In the case of `CCc1ccccc1NC(=O)C1C2C=CC(O2)C1C(=O)O` (stereo not drawn), the inhibition is reported as inconclusive: 72.9%.
In the case of `COc1cc(OC)cc(-c2c(-c3cccs3)c3cc(-c4ccc5c(c4)OCO5)ccc3n2C)c1`, the inhibition is reported as inconclusive: 83%.
In the case of `COc1ccc(-c2c(C(F)(F)F)[nH]n3c(=O)cc(-c4ccccc4)nc23)cc1`, the inhibition is reported as inconclusive: 83.5%.
For `O=C(CS(=O)CC(=O)N(CC(=O)NC1CCCC1)c1ccccc1F)Nc1ccc(F)cc1` (stereo not drawn), the inhibition was inactive: -2.7%.
With `COC(=O)c1c(-c2ccc(OC)cc2)sc2cc3c(cc12)OCO3` the inhibition was inconclusive: 77.8%.
`COc1ccc2sc(N(CCCN(C)C)C(=O)c3ccc(S(=O)(=O)N(C)Cc4ccccc4)cc3)nc2c1` was tested, and the inhibition was active: 48.1%.
`COc1ccc(C(=O)c2c(-c3ccc(OC)cc3)oc3ccccc23)cc1` was tested, and the inhibition was inconclusive: 59.8%.
In the case of `Cc1nn(-c2ccc(F)cc2)c2nc(N)c(C#N)c(-c3cccs3)c12`, the inhibition is reported as inconclusive: 50.7%.
With `O=c1c2cc(Br)ccc2[nH]c(=S)n1Cc1ccccc1` the inhibition was inconclusive: 81.4%.
`COC(=O)C1=C(C)N(Cc2ccccc2)C(=NCC(C)C)N[C@H]1c1cccc(C(F)(F)F)c1` was tested, and the inhibition was active: 72.3%.
For `CCCCNc1c(-c2ccc(SC3CCCCC3)cc2)nc2cnccn12`, the inhibition was inconclusive: 52.3%.
With `CN(C)S(=O)(=O)c1ccc(Cl)c(NC(=O)CSc2nc3ccccc3c(=O)n2CCCN2CCOCC2)c1` the inhibition was inactive: 0.8%.
With `Cc1ccc2[nH]c(=O)c(NC(N)=S)nc2c1` the inhibition was active: 71%.
For `COc1ccc(CNC(=O)CCSc2nc(-c3ccc4c(c3)OCO4)cc(C(F)(F)F)n2)cc1`, the inhibition was inconclusive: 63.5%.
`COc1nccc(Nc2ccccc2)c1C#N` was tested, and the inhibition was inactive: 14.6%.
`CCOc1ccc2nc(Cl)c(C3CC(c4ccccc4)=NN3C(=O)c3cccs3)cc2c1` (stereo not drawn) was tested, and the inhibition was inconclusive: 50.8%.
For `C=CCC[C@@H](Cc1ccc(F)cc1)C(=O)OC[C@@H]1CCCN1C(=O)[C@@H](CC=C)CC(=O)N[C@@H](CO)Cc1ccccc1`, the inhibition was inconclusive: 61.2%.
`Cc1cccc(NC(=O)Nc2cnccn2)c1C` was tested, and the inhibition was inactive: -0.5%.
For `CCN(CC(=O)NC(C)(C)C)Cc1nc2c(Br)cc(Br)cc2c(=O)[nH]1`, the inhibition was inconclusive: 97.6%.
In the case of `Nc1nc(=S)[nH]c2c1C1(CCCC1)Cc1ccccc1-2`, the inhibition is reported as inconclusive: 56.8%.
With `COc1ccc(OCC(=O)N2CCCC2=O)c([N+](=O)[O-])c1` the inhibition was inconclusive: 45.7%.
`CC(C)C(=O)NC(c1ccc(Cl)cc1Cl)c1ccc2cccnc2c1O` (stereo not drawn) was tested, and the inhibition was inactive: 2.8%.
With `Cc1nc2ccc(Br)cc2c(-c2ccccc2)c1C(=O)O` the inhibition was inconclusive: 63.3%.
In the case of `CCC(C)CCN1C(N(C)C)=NC[C@@H]1C` (stereo partly drawn), the inhibition is reported as inconclusive: 100%.
With `CCS(=O)(=O)N1CCN(C(=O)c2cc(OC)cc(OC)c2)CC1` the inhibition was inconclusive: 86.2%.
With `O=C(CCN1C(=O)COc2ccccc21)NCCN1CCN(c2ccccc2F)CC1` the inhibition was inactive: 1.4%.
With `CCN(C(=O)COC(=O)c1cc(-c2ccc3cc(OC)ccc3c2)nc2ccccc12)C1CCS(=O)(=O)C1` (stereo not drawn) the inhibition was inconclusive: 67.2%.
In the case of `Cc1ccc2nc3c(c(N)c2c1)CCN3c1ccccc1`, the inhibition is reported as inconclusive: 69.5%.
`CC(C)Cc1nc2sc3c(=O)[nH]cnc3c2c2c1CCC2` was tested, and the inhibition was inconclusive: 95%.
With `COc1ccc(S(=O)(=O)N(C)C)cc1NC(=O)Cc1ccc(S(=O)(=O)N2CCOCC2)s1` the inhibition was inactive: -6.6%.
With `COc1ccc(-c2c(-c3cc(OC)cc(OC)c3)n(C)c3ccc(-c4ccc(OC)nc4)cc23)cc1` the inhibition was inconclusive: 61.1%.
For `CNCCC(Oc1ccc(C(F)(F)F)cc1)c1ccccc1` (stereo not drawn), the inhibition was active: 49.8%.
In the case of `Nc1c2c(nc3ccccc13)N(c1ccccc1)CC2`, the inhibition is reported as inconclusive: 69.1%.
For `NCCNc1ccc(C(=O)N2c3ccccc3Sc3ccccc32)cc1[N+](=O)[O-]`, the inhibition was active: 64.9%.
In the case of `CC(C)OC(=O)CSc1nc2cc3c(cc2cc1C#N)OCO3`, the inhibition is reported as inconclusive: 54%.
With `COc1ccc(-c2c(-c3cc(OC)cc(OC)c3)n(C)c3ccc(-c4cnc(OC)nc4)cc23)cc1` the inhibition was inconclusive: 62.6%.
In the case of `CCN(CC)CCCNC(=O)c1c(O)c2cc(F)cc3c2n(c1=O)C(C)CC3` (stereo not drawn), the inhibition is reported as inconclusive: 58.5%.
In the case of `O=C(O)CSc1ncnc2sc(-c3ccccc3)cc12`, the inhibition is reported as inactive: 11.7%.
In the case of `CCOC(=O)c1ccc2ncc(C(=O)OCC)c(Nc3ccc(N4CCOCC4)cc3)c2c1`, the inhibition is reported as inactive: -7.1%.
For `O=C(c1cccn2c(=O)c3cc4ccccc4cc3nc12)N1CCN(c2ccccc2)CC1`, the inhibition was inactive: -57.8%.
`CCC[C@@H](CN1CCC[C@H]1CN1C(N)=NC[C@@H]1Cc1ccccc1)N1C[C@@H](Cc2ccccc2)N(CCCC2CCCC2)C1=N` was tested, and the inhibition was active: 64.6%.
For `COc1ccc(-c2nsc3c(SCc4ccccc4)ncnc23)cc1`, the inhibition was inconclusive: 61.6%.
For `CCC(=O)NC(C)c1cc(Cl)c2ccccc2c1O` (stereo not drawn), the inhibition was active: 51.4%.
For `C#CCOCCOCCOCCNc1nc(N2CCN(C(=O)CCCCCCCCCCNC(=O)[C@H](CCCCN)n3cc(C)nn3)CC2)nc(N2CCN(C(=O)CCCCCCCCCCNC(=O)[C@@H]([C@H](C)O)n3cc(C)nn3)CC2)n1`, the inhibition was active: 117%.
With `O=S(=O)(NC1CCCCC1)c1ccc(N2CCOCC2)nc1` the inhibition was inconclusive: 75.9%.
